# Test results as given in the supplement of paper PMC8728848.
# Some of the results follow.
# B1: Clone730PsrP (Streptococcus pneumoniae) (protein)
# chain: MDHHHHHHHHHHASENLYFQGAMVVGSQTAAATEATAKKVEEDRKKPASDYVASVTNVNLQSYAKRRKRSVDSIEQLLASIKNAAVFSGNTIVNGAPAINASLNIAKSETKVYTGEGVDSVYRVPIYYKLKVTNDGSKLTFTYTVTYVNPKTNDLGNISSMRPGYSIYNSGTSTQTMLTLGSDLGKPSGVKNYITDKNGRQVLSYNTSTMTTQGSGYTWGNGAQMNGFFAKKGYGLTSSWTVPITGTDTSFTFTPYAARTDRIGINYFNGGGKVVESSTT
# How the values were obtained:
# Test in all cases: glycan array binding signal (z-score within array); higher = stronger binding
# Conditions in all cases: glycan notation: IUPAC condensed, linker removed
# Neu5Ac(a2-3)GalNAc = target: Neu5Ac(a2-3)GalNAc
# Outline: (§1)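 Glycan array data were curated from 3228 arrays in the Consortium for Functional Glycomics database and kept only where the protein sequence was available. Glycan names were converted to IUPAC-condensed notation, and columns mapping to the same glycan were averaged. The binding signal is a within-array Z-score, averaged across arrays of the same protein sequence at different concentrations or buffers and across linkers. Negative Z-scores can be read as non-binding.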
# [1] = target: Neu5Ac(a2-3)GalNAc(b1-4)GlcNAc
# Outline: as §1
# [2] = target: Neu5Ac(a2-3)[GalNAc(b1-4)]Gal(b1-4)Glc
# Outline: as §1
# [3] = target: Neu5Ac(a2-3)[GalNAc(b1-4)]Gal(b1-4)GlcNAc
# Outline: as §1
# [4] = target: Neu5Ac(a2-3)[GalNAc(b1-4)]Gal(b1-4)GlcNAc(b1-3)GalNAc
# Outline: as §1
# [5] = target: Neu5Ac(a2-3)[Neu5Ac(a2-6)]GalNAc
# Outline: as §1
# Neu5Ac(a2-6)Gal = target: Neu5Ac(a2-6)Gal
# Outline: as §1
# [6] = target: Neu5Ac(a2-6)Gal(b1-3)GlcNAc(b1-3)[Gal(b1-4)GlcNAc(b1-6)]Gal(b1-4)Glc
# Outline: as §1
# Neu5Ac(a2-6)Gal(b1-4)Glc = target: Neu5Ac(a2-6)Gal(b1-4)Glc
# Outline: as §1
# [7] = target: Neu5Ac(a2-6)Gal(b1-4)GlcNAc
# Outline: as §1
# [8] = target: Neu5Ac(a2-6)Gal(b1-4)GlcNAc(b1-2)Man
# Outline: as §1
# [9] = target: Neu5Ac(a2-6)Gal(b1-4)GlcNAc(b1-2)Man(a1-3)Man(b1-4)GlcNAc(b1-4)GlcNAc
# Outline: as §1
# [10] = target: Neu5Ac(a2-6)Gal(b1-4)GlcNAc(b1-2)Man(a1-3)[Gal(b1-4)GlcNAc(b1-2)Man(a1-6)]Man(b1-4)GlcNAc(b1-4)GlcNAc
# Outline: as §1
# [11] = target: Neu5Ac(a2-6)Gal(b1-4)GlcNAc(b1-2)Man(a1-3)[GlcNAc(b1-2)Man(a1-6)]Man(b1-4)GlcNAc(b1-4)GlcNAc
# Outline: as §1
# [12] = target: Neu5Ac(a2-6)Gal(b1-4)GlcNAc(b1-2)Man(a1-3)[GlcNAc(b1-4)][Neu5Ac(a2-6)Gal(b1-4)GlcNAc(b1-2)Man(a1-6)]Man(b1-4)GlcNAc(b1-4)GlcNAc
# Outline: as §1
# [13] = target: Neu5Ac(a2-6)Gal(b1-4)GlcNAc(b1-2)Man(a1-3)[Man(a1-6)]Man(b1-4)GlcNAc(b1-4)GlcNAc
# Outline: as §1
# [14] = target: Neu5Ac(a2-6)Gal(b1-4)GlcNAc(b1-2)Man(a1-3)[Neu5Ac(a2-3)Gal(b1-4)GlcNAc(b1-2)Man(a1-6)]Man(b1-4)GlcNAc(b1-4)GlcNAc
# Outline: as §1
# [15] = target: Neu5Ac(a2-6)Gal(b1-4)GlcNAc(b1-2)Man(a1-3)[Neu5Ac(a2-6)Gal(b1-4)GlcNAc(b1-2)Man(a1-6)]Man(b1-4)GlcNAc(b1-4)GlcNAc
# Outline: as §1
# [16] = target: Neu5Ac(a2-6)Gal(b1-4)GlcNAc(b1-2)Man(a1-3)[Neu5Ac(a2-6)Gal(b1-4)GlcNAc(b1-2)Man(a1-6)]Man(b1-4)GlcNAc(b1-4)[Fuc(a1-6)]GlcNAc
# Outline: as §1
# [17] = target: Neu5Ac(a2-6)Gal(b1-4)GlcNAc(b1-2)Man(a1-6)Man(b1-4)GlcNAc(b1-4)GlcNAc
# Outline: as §1
# [18] = target: Neu5Ac(a2-6)Gal(b1-4)GlcNAc(b1-2)Man(a1-6)[Gal(b1-4)GlcNAc(b1-2)Man(a1-3)]Man(b1-4)GlcNAc(b1-4)GlcNAc
# Outline: as §1
# [19] = target: Neu5Ac(a2-6)Gal(b1-4)GlcNAc(b1-2)Man(a1-6)[GlcNAc(b1-2)Man(a1-3)]Man(b1-4)GlcNAc(b1-4)GlcNAc
# Outline: as §1
# [20] = target: Neu5Ac(a2-6)Gal(b1-4)GlcNAc(b1-2)Man(a1-6)[Man(a1-3)]Man(b1-4)GlcNAc(b1-4)GlcNAc
# Outline: as §1
# [21] = target: Neu5Ac(a2-6)Gal(b1-4)GlcNAc(b1-2)[Neu5Ac(a2-6)Gal(b1-4)GlcNAc(b1-4)]Man(a1-3)[GlcNAc(b1-4)][Neu5Ac(a2-6)Gal(b1-4)GlcNAc(b1-2)[Neu5Ac(a2-6)Gal(b1-4)GlcNAc(b1-6)]Man(a1-6)]Man(b1-4)GlcNAc(b1-4)GlcNAc
# Outline: as §1
# [22] = target: Neu5Ac(a2-6)Gal(b1-4)GlcNAc(b1-2)[Neu5Ac(a2-6)Gal(b1-4)GlcNAc(b1-4)]Man(a1-3)[GlcNAc(b1-4)][Neu5Ac(a2-6)Gal(b1-4)GlcNAc(b1-4)Man(a1-6)]Man(b1-4)GlcNAc(b1-4)GlcNAc
# Outline: as §1
# [23] = target: Neu5Ac(a2-6)Gal(b1-4)GlcNAc(b1-2)[Neu5Ac(a2-6)Gal(b1-4)GlcNAc(b1-6)]Man(a1-6)[Neu5Ac(a2-6)Gal(b1-4)GlcNAc(b1-2)Man(a1-3)][GlcNAc(b1-4)]Man(b1-4)GlcNAc(b1-4)GlcNAc
# Outline: as §1
# [24] = target: Neu5Ac(a2-6)Gal(b1-4)GlcNAc(b1-3)Gal(b1-3)GlcNAc
# Outline: as §1
# [25] = target: Neu5Ac(a2-6)Gal(b1-4)GlcNAc(b1-3)Gal(b1-4)GlcNAc
# Outline: as §1
# [26] = target: Neu5Ac(a2-6)Gal(b1-4)GlcNAc(b1-3)Gal(b1-4)GlcNAc(b1-2)Man(a1-3)[Neu5Ac(a2-6)Gal(b1-4)GlcNAc(b1-3)Gal(b1-4)GlcNAc(b1-2)Man(a1-6)]GalNAc
# Outline: as §1
# [27] = target: Neu5Ac(a2-6)Gal(b1-4)GlcNAc(b1-3)Gal(b1-4)GlcNAc(b1-3)Gal(b1-4)GlcNAc
# Outline: as §1
# [28] = target: Neu5Ac(a2-6)Gal(b1-4)GlcNAc(b1-3)Gal(b1-4)GlcNAc(b1-3)Gal(b1-4)GlcNAc(b1-2)Man(a1-3)[Neu5Ac(a2-6)Gal(b1-4)GlcNAc(b1-3)Gal(b1-4)GlcNAc(b1-3)Gal(b1-4)GlcNAc(b1-2)Man(a1-6)]GalNAc
# Outline: as §1
# [29] = target: Neu5Ac(a2-6)Gal(b1-4)GlcNAc(b1-3)Gal(b1-4)GlcNAc(b1-3)GalNAc
# Outline: as §1
# [30] = target: Neu5Ac(a2-6)Gal(b1-4)GlcNAc(b1-3)Gal(b1-4)GlcNAc(b1-3)[Neu5Ac(a2-6)Gal(b1-4)GlcNAc(b1-3)Gal(b1-4)GlcNAc(b1-6)]GalNAc
# Outline: as §1
# [31] = target: Neu5Ac(a2-6)Gal(b1-4)GlcNAc(b1-3)Gal(b1-4)GlcNAc(b1-6)[Gal(b1-3)]GalNAc
# Outline: as §1
# [32] = target: Neu5Ac(a2-6)Gal(b1-4)GlcNAc(b1-3)Gal(b1-4)[Fuc(a1-3)]GlcNAc(b1-3)Gal(b1-4)[Fuc(a1-3)]GlcNAc
# Outline: as §1
# [33] = target: Neu5Ac(a2-6)Gal(b1-4)GlcNAc(b1-3)GalNAc
# Outline: as §1
# [34] = target: Neu5Ac(a2-6)Gal(b1-4)GlcNAc(b1-3)[Neu5Ac(a2-6)Gal(b1-4)GlcNAc(b1-6)]GalNAc
# Outline: as §1
binder,measurement,setting,value
B1,glycan array binding signal (z-score),Neu5Ac(a2-3)GalNAc,0.52
same,glycan array binding signal (z-score),[1],-0.089
same,glycan array binding signal (z-score),[2],-0.647
same,glycan array binding signal (z-score),[3],-0.603
same,glycan array binding signal (z-score),[4],-0.53
same,glycan array binding signal (z-score),[5],0.717
same,glycan array binding signal (z-score),Neu5Ac(a2-6)Gal,-0.462
same,glycan array binding signal (z-score),[6],-0.471
same,glycan array binding signal (z-score),Neu5Ac(a2-6)Gal(b1-4)Glc,0.156
same,glycan array binding signal (z-score),[7],-0.2
same,glycan array binding signal (z-score),[8],0.242
same,glycan array binding signal (z-score),[9],-0.343
same,glycan array binding signal (z-score),[10],-0.244
same,glycan array binding signal (z-score),[11],-0.597
same,glycan array binding signal (z-score),[12],-0.568
same,glycan array binding signal (z-score),[13],-0.461
same,glycan array binding signal (z-score),[14],-0.454
same,glycan array binding signal (z-score),[15],-0.105
same,glycan array binding signal (z-score),[16],0.395
same,glycan array binding signal (z-score),[17],-0.424
same,glycan array binding signal (z-score),[18],-0.545
same,glycan array binding signal (z-score),[19],-0.372
same,glycan array binding signal (z-score),[20],-0.549
same,glycan array binding signal (z-score),[21],-0.264
same,glycan array binding signal (z-score),[22],-0.355
same,glycan array binding signal (z-score),[23],-0.585
same,glycan array binding signal (z-score),[24],-0.279
same,glycan array binding signal (z-score),[25],-0.249
same,glycan array binding signal (z-score),[26],0.111
same,glycan array binding signal (z-score),[27],0.043
same,glycan array binding signal (z-score),[28],0.355
same,glycan array binding signal (z-score),[29],-0.525
same,glycan array binding signal (z-score),[30],0.111
same,glycan array binding signal (z-score),[31],-0.382
same,glycan array binding signal (z-score),[32],-0.264
same,glycan array binding signal (z-score),[33],0.063
same,glycan array binding signal (z-score),[34],-0.567
